The values that follow come from article PMC5380967.

Sequences of proteins named here, by UniProt entry; tags and fusion partners are left off.
UniProt Q07820: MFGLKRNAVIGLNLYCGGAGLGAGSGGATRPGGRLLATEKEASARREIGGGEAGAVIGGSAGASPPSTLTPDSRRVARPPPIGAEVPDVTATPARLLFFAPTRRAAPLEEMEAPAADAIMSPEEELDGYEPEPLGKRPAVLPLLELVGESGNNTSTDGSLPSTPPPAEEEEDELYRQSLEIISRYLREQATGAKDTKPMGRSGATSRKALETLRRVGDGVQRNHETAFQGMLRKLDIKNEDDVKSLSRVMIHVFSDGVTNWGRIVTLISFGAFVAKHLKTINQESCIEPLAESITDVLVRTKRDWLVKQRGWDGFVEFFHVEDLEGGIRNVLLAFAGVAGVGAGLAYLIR
UniProt Q96J02: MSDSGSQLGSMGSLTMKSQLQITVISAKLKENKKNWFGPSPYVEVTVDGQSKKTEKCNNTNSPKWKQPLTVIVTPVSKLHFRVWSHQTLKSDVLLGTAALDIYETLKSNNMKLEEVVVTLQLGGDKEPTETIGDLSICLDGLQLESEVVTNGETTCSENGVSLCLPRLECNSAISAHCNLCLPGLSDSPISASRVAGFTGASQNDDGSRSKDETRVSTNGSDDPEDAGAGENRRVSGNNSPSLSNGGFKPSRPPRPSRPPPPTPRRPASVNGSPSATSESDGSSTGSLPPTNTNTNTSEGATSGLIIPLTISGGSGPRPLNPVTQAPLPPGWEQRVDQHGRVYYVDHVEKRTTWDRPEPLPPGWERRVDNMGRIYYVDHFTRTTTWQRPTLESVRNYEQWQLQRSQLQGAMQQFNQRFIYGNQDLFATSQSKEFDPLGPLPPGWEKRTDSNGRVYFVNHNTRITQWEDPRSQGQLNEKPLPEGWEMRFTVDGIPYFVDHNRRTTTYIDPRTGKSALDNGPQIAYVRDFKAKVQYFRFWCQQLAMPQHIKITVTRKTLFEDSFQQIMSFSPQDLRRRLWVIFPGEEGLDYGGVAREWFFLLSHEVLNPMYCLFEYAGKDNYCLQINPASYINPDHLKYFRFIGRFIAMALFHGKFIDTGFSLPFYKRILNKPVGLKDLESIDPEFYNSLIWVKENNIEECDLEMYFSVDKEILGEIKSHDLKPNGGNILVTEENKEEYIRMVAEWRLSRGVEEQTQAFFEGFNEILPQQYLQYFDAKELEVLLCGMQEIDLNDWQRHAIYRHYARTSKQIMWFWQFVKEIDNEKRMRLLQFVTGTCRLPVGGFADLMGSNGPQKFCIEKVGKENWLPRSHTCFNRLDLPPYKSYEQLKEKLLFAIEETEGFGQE
UniProt Q93008: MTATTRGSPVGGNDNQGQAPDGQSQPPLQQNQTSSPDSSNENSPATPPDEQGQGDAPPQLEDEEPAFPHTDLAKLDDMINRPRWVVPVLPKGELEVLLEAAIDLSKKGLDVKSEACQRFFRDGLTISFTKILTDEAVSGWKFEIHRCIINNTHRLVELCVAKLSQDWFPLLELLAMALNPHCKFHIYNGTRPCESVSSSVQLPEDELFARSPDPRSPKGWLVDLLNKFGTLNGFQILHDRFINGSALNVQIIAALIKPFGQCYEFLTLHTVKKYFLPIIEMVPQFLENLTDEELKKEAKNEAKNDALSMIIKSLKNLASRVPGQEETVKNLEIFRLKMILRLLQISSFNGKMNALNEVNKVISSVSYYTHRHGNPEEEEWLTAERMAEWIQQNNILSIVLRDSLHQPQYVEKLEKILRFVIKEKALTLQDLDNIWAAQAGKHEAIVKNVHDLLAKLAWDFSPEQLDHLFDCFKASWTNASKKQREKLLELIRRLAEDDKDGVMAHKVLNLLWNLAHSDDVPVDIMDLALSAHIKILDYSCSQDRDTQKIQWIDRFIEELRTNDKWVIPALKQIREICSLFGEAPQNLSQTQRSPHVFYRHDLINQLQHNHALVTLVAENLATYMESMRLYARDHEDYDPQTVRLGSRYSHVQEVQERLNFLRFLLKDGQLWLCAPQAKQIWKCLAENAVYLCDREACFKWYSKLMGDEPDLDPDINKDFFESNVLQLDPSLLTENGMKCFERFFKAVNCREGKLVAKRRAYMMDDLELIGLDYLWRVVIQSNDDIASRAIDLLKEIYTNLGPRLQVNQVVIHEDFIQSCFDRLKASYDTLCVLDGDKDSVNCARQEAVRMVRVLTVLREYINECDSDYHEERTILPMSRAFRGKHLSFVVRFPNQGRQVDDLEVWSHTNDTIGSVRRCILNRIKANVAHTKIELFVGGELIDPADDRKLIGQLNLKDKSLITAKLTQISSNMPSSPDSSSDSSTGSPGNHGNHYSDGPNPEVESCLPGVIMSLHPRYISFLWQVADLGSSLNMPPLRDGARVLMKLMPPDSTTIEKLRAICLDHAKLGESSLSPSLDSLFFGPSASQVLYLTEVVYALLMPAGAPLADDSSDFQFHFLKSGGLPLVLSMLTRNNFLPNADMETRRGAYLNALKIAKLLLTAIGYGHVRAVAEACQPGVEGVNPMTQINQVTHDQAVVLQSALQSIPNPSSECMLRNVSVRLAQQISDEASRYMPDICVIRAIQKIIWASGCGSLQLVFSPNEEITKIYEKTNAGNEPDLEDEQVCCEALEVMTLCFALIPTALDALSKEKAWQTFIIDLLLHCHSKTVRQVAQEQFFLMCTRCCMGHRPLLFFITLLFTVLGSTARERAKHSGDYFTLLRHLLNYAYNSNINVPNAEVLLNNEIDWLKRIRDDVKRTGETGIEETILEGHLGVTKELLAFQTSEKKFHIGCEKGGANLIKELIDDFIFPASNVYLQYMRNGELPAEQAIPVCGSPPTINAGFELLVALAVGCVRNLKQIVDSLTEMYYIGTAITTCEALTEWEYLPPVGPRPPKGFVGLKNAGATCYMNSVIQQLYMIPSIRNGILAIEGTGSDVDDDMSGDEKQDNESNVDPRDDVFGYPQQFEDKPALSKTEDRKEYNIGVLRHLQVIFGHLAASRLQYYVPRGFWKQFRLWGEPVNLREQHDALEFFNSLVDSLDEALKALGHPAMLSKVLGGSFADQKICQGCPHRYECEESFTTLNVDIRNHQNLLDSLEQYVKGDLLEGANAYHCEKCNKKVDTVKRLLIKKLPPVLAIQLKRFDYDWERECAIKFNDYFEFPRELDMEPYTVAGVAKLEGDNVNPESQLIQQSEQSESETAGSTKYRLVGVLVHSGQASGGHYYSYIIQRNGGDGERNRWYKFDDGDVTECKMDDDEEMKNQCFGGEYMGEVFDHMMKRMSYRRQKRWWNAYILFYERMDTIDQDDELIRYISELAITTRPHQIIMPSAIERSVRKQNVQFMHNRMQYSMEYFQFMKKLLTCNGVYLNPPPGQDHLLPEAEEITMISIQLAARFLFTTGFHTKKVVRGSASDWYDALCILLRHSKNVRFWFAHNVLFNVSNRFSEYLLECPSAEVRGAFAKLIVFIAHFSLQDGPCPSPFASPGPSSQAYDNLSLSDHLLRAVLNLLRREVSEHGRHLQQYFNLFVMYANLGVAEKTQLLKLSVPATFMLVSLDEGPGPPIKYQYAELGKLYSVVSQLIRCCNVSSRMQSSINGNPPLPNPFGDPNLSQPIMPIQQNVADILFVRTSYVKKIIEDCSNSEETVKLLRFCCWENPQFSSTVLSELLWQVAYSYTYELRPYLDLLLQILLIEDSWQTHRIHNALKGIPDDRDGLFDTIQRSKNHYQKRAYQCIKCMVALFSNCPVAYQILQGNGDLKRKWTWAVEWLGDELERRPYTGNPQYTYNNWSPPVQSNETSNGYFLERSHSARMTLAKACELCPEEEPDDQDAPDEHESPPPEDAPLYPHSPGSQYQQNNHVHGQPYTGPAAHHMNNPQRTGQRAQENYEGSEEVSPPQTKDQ

These are yes or no findings as the source states them, for the method shown. For some assays here: In cells and extracts the contact can be indirect. Some binding calls cover weakened binding; strength is not graded here.

For one test, the target named is MCL1 (UniProt Q07820). In words: co-IP; immunoprecipitation of ITCH or MCL1, blot for USP9X and CEP131 (Supplementary Fig. 10b); cells not given.
The target in test [1] is itchy E3 ubiquitin protein ligase (ITCH) (human (endogenous in HeLa)) (UniProt Q96J02). The test is described as above.
Test [2] deals with ubiquitin-specific peptidase 9, X-linked (USP9X), endogenous (human (endogenous in HeLa, MCF-7, HEK293T, U2OS)) (UniProt Q93008). In words: SEC; HeLa cell extracts fractionated on a Superose 6 size exclusion column (FPLC); fractions immunoblotted. For orientation: Size exclusion chromatography separates by hydrodynamic size, large species first.
Test [3] concerns the target T1, USP33, deubiquitinase, endogenous (human (endogenous in HeLa, MCF-7, HEK293T, U2OS)) (UniProt Q8TEY7).
T1 sequence: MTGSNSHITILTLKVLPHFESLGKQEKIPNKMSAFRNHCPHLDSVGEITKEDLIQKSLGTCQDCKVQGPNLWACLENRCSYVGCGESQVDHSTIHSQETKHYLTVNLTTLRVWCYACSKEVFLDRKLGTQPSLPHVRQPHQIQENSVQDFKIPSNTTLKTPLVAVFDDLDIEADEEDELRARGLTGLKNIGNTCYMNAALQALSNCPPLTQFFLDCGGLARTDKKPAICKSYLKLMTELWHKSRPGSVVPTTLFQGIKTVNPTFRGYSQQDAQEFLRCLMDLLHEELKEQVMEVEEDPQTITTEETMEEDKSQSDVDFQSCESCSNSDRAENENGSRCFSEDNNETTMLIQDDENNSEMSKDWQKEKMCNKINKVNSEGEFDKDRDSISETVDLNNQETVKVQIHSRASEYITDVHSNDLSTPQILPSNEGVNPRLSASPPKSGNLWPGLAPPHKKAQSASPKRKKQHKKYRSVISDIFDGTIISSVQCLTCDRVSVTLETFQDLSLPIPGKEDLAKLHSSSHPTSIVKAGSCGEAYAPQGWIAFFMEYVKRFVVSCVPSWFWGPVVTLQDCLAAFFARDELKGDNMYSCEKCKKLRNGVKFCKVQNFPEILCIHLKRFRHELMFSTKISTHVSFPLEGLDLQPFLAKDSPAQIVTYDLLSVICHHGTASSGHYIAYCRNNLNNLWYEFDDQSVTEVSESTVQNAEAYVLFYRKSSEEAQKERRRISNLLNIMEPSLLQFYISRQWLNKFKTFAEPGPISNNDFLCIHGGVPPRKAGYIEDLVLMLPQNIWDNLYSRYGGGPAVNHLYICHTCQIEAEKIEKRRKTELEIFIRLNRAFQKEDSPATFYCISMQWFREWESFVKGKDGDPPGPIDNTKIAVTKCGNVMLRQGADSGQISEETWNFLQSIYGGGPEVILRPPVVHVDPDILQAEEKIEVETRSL
In words: co-IP; endogenous proteins; whole-cell lysates of HeLa, MCF-7, HEK293T and U2OS cells in NETN buffer (50 mM Tris-HCl pH 8.0, 150 mM NaCl, 0.2% Nonidet P-40, 2 mM EDTA); protein G magnetic beads; immunoblot; also U2OS cells synchronized by double-thymidine block and released (association detected primarily in S and G2 phases). For orientation: A western blot detects proteins with antibodies after separation by electrophoresis.

Test [4] addresses ubiquitin-specific peptidase 9, X-linked (USP9X), endogenous (human (endogenous in HeLa, MCF-7, HEK293T, U2OS)) (UniProt Q93008). The description is as above.

B1: CEP131, centriolar satellite protein, endogenous (protein, UniProt Q9UPN4 1-1083)
chain: MKGTRAIGSVPERSPAGVDLSLTGLPPPVSRRPGSAATTKPIVRSVSVVTGSEQKRKVLEATGPGGSQAINNLRRSNSTTQVSQPRSGSPRPTEPTDFLMLFEGSPSGKKRPASLSTAPSEKGATWNVLDDQPRGFTLPSNARSSSALDSPAGPRRKECTVALAPNFTANNRSNKGAVGNCVTTMVHNRYTPSERAPPLKSSNQTAPSLNNIIKAATCEGSESSGFGKLPKNVSSATHSARNNTGGSTGLPRRKEVTEEEAERFIHQVNQATVTIQRWYRHQVQRRGAGAARLEHLLQAKREEQRQRSGEGTLLDLHQQKEAARRKAREEKARQARRAAIQELQQKRALRAQKASTAERGPPENPRETRVPGMRQPAQELSPTPGGTAHQALKANNTGGGLPAAGPGDRCLPTSDSSPEPQQPPEDRTQDVLAQDAAGDNLEMMAPSRGSAKSRGPLEELLHTLQLLEKEPDVLPRPRTHHRGRYAWASEVTTEDDASSLTADNLEKFGKLSAFPEPPEDGTLLSEAKLQSIMSFLDEMEKSGQDQLDSQQEGWVPEAGPGPLELGSEVSTSVMRLKLEVEEKKQAMLLLQRALAQQRDLTARRVKETEKALSRQLQRQREHYEATIQRHLAFIDQLIEDKKVLSEKCEAVVAELKQEDQRCTERVAQAQAQHELEIKKLKELMSATEKARREKWISEKTKKIKEVTVRGLEPEIQKLIARHKQEVRRLKSLHEAELLQSDERASQRCLRQAEELREQLEREKEALGQQERERARQRFQQHLEQEQWALQQQRQRLYSEVAEERERLGQQAARQRAELEELRQQLEESSSALTRALRAEFEKGREEQERRHQMELNTLKQQLELERQAWEAGRTRKEEAWLLNREQELREEIRKGRDKEIELVIHRLEADMALAKEESEKAAESRIKRLRDKYEAELSELEQSERKLQERCSELKGQLGEAEGENLRLQGLVRQKERALEDAQAVNEQLSSERSNLAQVIRQEFEDRLAASEEETRQAKAELATLQARQQLELEEVHRRVKTALARKEEAVSSLRTQHEAAVKRADHLEELLEQHRRPTPSTK
B1: the binding result with MCL1 is recorded as “no binding”; in test [1], “no binding”; in test [2], “binds”; in test [3], “no binding”; in test [4], “binds”.
